Assay results taken from patent publication US20220340642A1 (Kyowa Kirin, published 2022).

Experiments:
[1] = target: T1, membrane-bound human LIGHT (human, UniProt O43557 1-240); assay: flow cytometry on expressing cells
T1 construct: whole, on cells; also called LIGHT/HEK293
Method in brief: (§1)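 Binding was measured by flow cytometry on HEK293 cells forced to express membrane-bound LIGHT and on cell lines expressing N-terminally Met/FLAG-tagged TL1A or FasL from a CMV-promoter pClpuro vector. Cells at 1×10⁵ cells/well received 1 or 10 μg/mL protein on ice for 1 hour. After washing, cells were stained on ice for 1 hour with LIVE/DEAD Fixable Aqua and R-phycoerythrin goat F(ab′)₂ anti-human IgG (10 ng/mL, 0.1 or 1 μg/mL). Fluorescence was read on a FACS Fortessa.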

[2] = target: T2, membrane-bound human TL1A (Met and FLAG tag at the N-terminus) on CHO-K1 cells (human, UniProt O95150 2-251); assay: flow cytometry on expressing cells
T2 construct: also called TL1A/CHO
T2 sequence: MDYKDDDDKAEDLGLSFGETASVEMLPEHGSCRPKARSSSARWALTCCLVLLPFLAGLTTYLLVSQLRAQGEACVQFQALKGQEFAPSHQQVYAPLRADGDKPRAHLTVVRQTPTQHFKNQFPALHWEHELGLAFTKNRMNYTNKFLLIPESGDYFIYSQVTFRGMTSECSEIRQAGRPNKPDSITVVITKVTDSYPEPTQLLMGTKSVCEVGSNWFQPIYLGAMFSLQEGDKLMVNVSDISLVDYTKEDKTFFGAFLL
Method in brief: as §1

[3] = target: T3, Human His6 Fas Ligand/TNFSF6 (Cell Signaling Technology, Inc.) (human, UniProt P48023 133-281); assay: SPR, binder captured on Protein A chip
T3 construct: Bought; confirmed as a trimer by SEC-MALS; also called recombinant human His6 Fas Ligand; soluble human FasL trimer
T3 sequence: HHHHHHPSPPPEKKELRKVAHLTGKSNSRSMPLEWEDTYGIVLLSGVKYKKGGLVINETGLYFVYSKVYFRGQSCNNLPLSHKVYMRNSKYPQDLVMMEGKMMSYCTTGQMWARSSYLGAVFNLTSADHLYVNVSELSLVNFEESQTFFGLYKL
Procedure: The binding activity to human and cynomolgus monkey DcR3 ligand trimers were analyzed by the SPR method. BIAcore T-100 (GE Healthcare) was used for measurement of the binding activities to human LIGHT, cynomolgus monkey LIGHT, human TL1A and cynomolgus monkey TL1A, and BIAcore T-200 (GE Healthcare) was used for measurement of the binding activities to human FasL and cynomolgus monkey FasL. As the buffer, HBS-EP+Buffer was used.
Various DcR3 variants were injected into Series S Sensor Chip Protein A (GE Healthcare) at 10 μL/min for 30 seconds and captured. Meanwhile, the buffer containing no protein was injected into a reference flow cell. Thereafter, as an analyte, each human DcR3 ligand trimer or each cynomolgus monkey DcR3 ligand trimer diluted to 0.08 to 20 nmol/L was injected. A human LIGHT trimer, a human TL1A trimer or each cynomolgus monkey DcR3 ligand trimer was injected at the flow rate of 30 μL/min for 2 minutes to monitor the binding, and subsequently the buffer was injected for 5 minutes to monitor dissociation. A human FasL trimer was injected at 30 μL/min for 1 minute to monitor the binding, and subsequently the buffer was injected for 3 minutes to monitor dissociation. Then, 3 mol/L magnesium chloride was injected at 30 μL/min for 1 minute to perform a regeneration reaction.

Measured: binding result

B1: chimera A-Fc (Eg1S N434A) (Fc fusion)
chain: ETFPPKYLHYDEETSHQLLCDKCPPGTYLKQHCTAKWKTVCAPCPPRHYTQFWNYLERCRYCNVLCGEREEEARACHATHNRACRCRTGFFAHAGFCLEHASCPPGAGVIAPGTPSQNTQCQPCPDGFFSNETSSKAPCRKHTNCSVFGLLLTQKGNATHDNICSGNSESTQK[omitted - human IgG1 Fc with changes]
binds: all assays above

B2: chimera A-Fc (Eg1S LALAGA) (Fc fusion)
chain: ETFPPKYLHYDEETSHQLLCDKCPPGTYLKQHCTAKWKTVCAPCPPRHYTQFWNYLERCRYCNVLCGEREEEARACHATHNRACRCRTGFFAHAGFCLEHASCPPGAGVIAPGTPSQNTQCQPCPDGFFSNETSSKAPCRKHTNCSVFGLLLTQKGNATHDNICSGNSESTQK[omitted - human IgG1 Fc with C220S L234A L235A G237A (EU numbers)]
binds: all assays above
